In EP4692351A1, “ANTI-CD25 ANTIBODY AND ANTI-CD25 ANTIBODY-DRUG CONJUGATE” (priority 2023, dated 2024):

B1: cMAb2_hIgG1LALA-ADC (conjugate)
heavy: QVKLLQSGAALEKPGASVKMSCKASGYTFTDYWVIWVKQSHGKSLEWIGEIYPNSGATNFNAKFKGKATLTVDKSTSTAYMELSRLTSEDSAIYYCTTYDFDYWGQGVMVTVSSASTKGPSVFPLAPSSKSTSGGTAALGCLVKDYFPEPVTVSWNSGALTSGVHTFPAVLQSSGLYSLSSVVTVPSSSLGTQTYICNVNHKPSNTKVDKRV[letters of human IgG1 Fc with changes left out]
light: DVVLTQTPPTLSATIGQSVSISCRSSQSLSHTNGNTYLYWLLQRPGQPPQLLIYFVSRLESGVPNRFSGSGSGTDFTLKISGVEAEDLGLYYCVQSTHVPNTFGAGTKLELKRTVAAPSVFIFPPSDEQLKSGTASVVCLLNNFYPREAKVQWKVDNALQSGNSQESVTEQDSKDSTYSLSSTLTLSKADYEKHKVYACEVTHQGLSSPVTKSFNRGEC
B2: hMAb1B-ADC (conjugate)
heavy: EVQLVESGGGLVQPGGSLRLSCAASGFTFNNYYMVWVRQAPGKGLEWVAYISTGGGTTYYADSVKGRFTISRDNSKSTLYLQMNSLRAEDTAVYYCTTSVYFSDGSSHYDGEWFAYWGQGTLVTVSS[letters of human IgG1 constant region left out]
light: EIVLTQSPGTLSLSPGERATLSCKASESVSTRMHWYQQKPGQAPRLLIYKASNLASGVPARFSGSGSGTDFTLTISRLEPEDFAVYFCQQSWNGWAFGQGTKVEIKRTVAAPSVFIFPPSDEQLKSGTASVVCLLNNFYPREAKVQWKVDNALQSGNSQESVTEQDSKDSTYSLSSTLTLSKADYEKHKVYACEVTHQGLSSPVTKSFNRGEC
B3: cMAb1_hIgG1LALA-ADC (conjugate)
heavy: EVQLVESGGGLVQPGRSLKLSCAASGFTFNNYYMVWVRQAPTKGLEWVAYISTGGGTTYYRESVKGRFTISRDNAKSTLYLQMDSLRSEDTATYYCTTSVYFSDGSSHYDGEWFAYWGQGTLVTVSSASTKGPSVFPLAPSSKSTSGGTAALGCLVKDYFPEPVTVSWNSGALTSGVHTFPAVLQSSGLYSLSSVVTVPSSSLGTQTYICNVNHKPSNTKVDKRV[letters of human IgG1 Fc with changes left out]
light: DTVLTQSPALAVSPGERVTISCKASESVSTRMHWYQQKPGQQPKLLIYKASNLASGVPARFSGSGSGTDFTLTIDPVEADDTATYFCQQSWNGWAFGGGTKLELKRTVAAPSVFIFPPSDEQLKSGTASVVCLLNNFYPREAKVQWKVDNALQSGNSQESVTEQDSKDSTYSLSSTLTLSKADYEKHKVYACEVTHQGLSSPVTKSFNRGEC

Experiments:
[1] = test system: CD25-positive mouse T cell line CTLL-2; test: Cell proliferation suppression assay, CTLL-2; type: cell-based; details: 0.015 µg/mL to 15 µg/mL; 4 days; CellTiter-Glo
Procedure: A CD25-positive mouse tumor cell line CTLL-2 was subcultured in RPMI1640 (Thermo Fisher Scientific Inc.) medium containing 1 mM Sodium Pyruvate (Thermo Fisher Scientific Inc.), 1 × MEM Non-Essential Amino Acids Solution (Thermo Fisher Scientific Inc.), and 10% T-STIM with ConA under conditions of 37°C and 5% CO2.
The CD25-positive mouse T cell line CTLL-2 was inoculated at 5 × 10^2 cells/50 µL/well in RPMI1640 (Thermo Fisher Scientific Inc.) medium containing 1 mM Sodium Pyruvate (Thermo Fisher Scientific Inc.), 1 × MEM Non-Essential Amino Acids Solution (Thermo Fisher Scientific Inc.), and 10% T-STIM with ConA to 96 well clear U bottom microplate (Corning Inc.). Further, cMAb2_hIgG1LALA, control hIgG1LALA-ADC, and cMAb2_hIgG1LALA-ADC were added at 0.015 µg/mL to 15 µg/mL. The cells were cultured for 4 days under conditions of 37°C and 5% CO2. The incubated plate was left standing at room temperature for 30 minutes. […] 100 µL of the solution of each well was added to each well of 96 well white flat bottom microplate (Corning Inc.), and luminescence intensity (relative light unit (RLU)) was measured using a plate reader (EnSight: PerkinElmer, Inc.) and used as an index for the number of cells.

[2] = test system: MDA-MB-231 cancer cell-bearing hematopoietic stem cell-transplanted NOG mice; test: In vivo immunoenhancing effect: flow cytometry of tumor immunocytes in MDA-MB-231-bearing huNOG mice; parameters: species or system mouse
Procedure: 5 × 10^6 human breast adenocarcinoma-derived MDA-MB-231 cells (American Type Culture Collection) subcultured in Leibovitz's L-15 medium containing 10% FBS were suspended in Matrigel and subcutaneously transplanted to each female immune-humanized NOG mouse (huNOG mouse) engrafted with human CD34 cells. The mice were grouped on the basis of their tumor volumes. 7 days after transplantation, 1 mg/kg control hIgG1LALA-ADC or 0.1 mg/kg, 0.3 mg/kg, or 1 mg/kg cMAb1_hIgG1LALA-ADC was intravenously administered to each mouse (n = 5). 28 days after ADC administration, tumor was harvested. The harvested tumor mass was treated with gentleMACS (Miltenyi Biotec) to recover cells. The cells were washed with PBS and resuspended therein. Then, the cell suspension was used as a sample for flow cytometry. The amount of PBS in resuspending the cells was the following amount depending on a tumor weight for addition: 0.6 mL for a tumor weight up to 50 mg; 0.9 mL for a tumor weight of 50 to 100 mg; 1.2 mL for a tumor weight of 100 to 150 mg; 1.8 mL for a tumor weight of 150 to 200 mg; and 2.4 mL for a tumor weight of 200 to 300 mg.
Zombie NIR dye solution was prepared by diluting Zombie NIR dye solution attached to Zombie NIR Fixable Viability Kit (BioLegend, Inc.) 1000-fold with PBS. Fc Block solution was prepared by adding and mixing Mouse BD Fc Block (BD Biosciences) solution, Human BD Fc Block solution, and autoMACS Rinsing Solution (Miltenyi Biotec) containing 0.5% BSA (hereinafter, referred to as "MACS buffer") at a ratio of 1:1:48. Foxp3 Fixation/Permeabilization buffer was prepared by mixing 3.5 mL of Concentrate and 10.5 mL of Diluent of Foxp3 Fixation/Permeabilization Concentrate and Diluent (eBioscience, Inc.). Perm wash buffer was prepared by diluting Intracellular Staining Perm Wash Buffer (BioLegend, Inc.) 10-fold with H2O. A cell surface marker antibody cocktail solution was used by adding 2 µL of FITC anti-human CD25 Antibody (BioLegend, Inc.), 1 µL of APC anti-human CD8 Antibody (BioLegend, Inc.), 3 µL of Brilliant Violet 421 anti-human CD4 Antibody (BioLegend, Inc.), 2.5 µL of PE/Cyanine7 anti-human CD45RA Antibody (BioLegend, Inc.), 2 µL of Alexa Fluor 700 anti-mouse CD45 Antibody, 2 µL of Brilliant Violet 605 anti-human CD45 Antibody (BD Biosciences), and Brilliant Violet 650 anti-human CD3 Antibody, and adjusting the whole amount to 50 µL with MACS buffer. An intracellular marker antibody cocktail solution was used by adding 3 µL of PE Mouse anti-Human FoxP3 (BD Biosciences), 3 µL of PerCP/Cyanine5.5 anti-human/mouse Granzyme B Recombinant Antibody (BioLegend, Inc.), 1 µL of Mouse BD Fc Block (BD Biosciences), and 1 µL of Human BD Fc Block, and adjusting the whole amount to 100 µL with Perm wash buffer.
0.1 mL of Zombie NIR dye diluting solution was added to 0.2 mL of the sample for flow cytometry prepared in 9)-2-1, and the mixture was incubated at 4°C for 30 minutes. 0.1 mL of MACS buffer was added thereto, and the mixture was centrifuged, followed by the removal of a supernatant by suction. 0.1 mL of Fc Block solution was added to the remaining cells, which were then incubated at 4°C for 5 minutes. 0.1 mL of the cell surface marker antibody cocktail solution prepared in 9)-2-2 was added to the cells, which were then incubated at 4°C for 30 minutes. Subsequently, 0.1 mL of MACS buffer was added thereto, and the mixture was centrifuged, followed by the removal of a supernatant by suction. 0.2 mL of MACS buffer was added to the remaining cells, and the mixture was further centrifuged to remove a supernatant. This operation was further carried out twice for the washing of the cells. 0.2 mL of Foxp3 Fixation/Permeabilization buffer was added to the cells, which were then incubated at 4°C for 1 hour. 0.2 mL of the intracellular marker antibody cocktail solution was added to the washed cells, which were then incubated at 4°C for 1 hour and then washed twice with Perm wash buffer. […]

[3] = test system: CD25-positive human tumor cell line EoL-1; test: Cell proliferation suppression assay, CD25-positive EoL-1; type: cell-based; details: 1 × 10^4 cells/well; 6 days; CellTiter-Glo
Procedure: A CD25-positive human tumor cell line Karpas-299 was subcultured in RPMI1640 (Thermo Fisher Scientific Inc.) medium containing 2 mM glutamine (Life Technologies Corp.) and 20% FBS under conditions of 37°C and 5% CO2. A CD25-positive human tumor cell line EoL-1 was subcultured in RPMI1640 (Thermo Fisher Scientific Inc.) medium containing 10% FBS under conditions of 37°C and 5% CO2. A CD25-negative human tumor cell line Daudi was subcultured in RPMI1640 medium containing 10% FBS under conditions of 37°C and 5% CO2.
The test was carried out in accordance with 9)-1-2. However, the incubation period was set to 6 days. EoL-1 was inoculated at 1 × 10^4 cells/50 µL/well in RPMI1640 medium containing 10% FBS to 96 well clear U bottom microplate (Corning Inc.). The plate was incubated for 6 days under conditions of 37°C and 5% CO2. The plate thus incubated was brought back to room temperature. 100 µL of Celltiter-Glo Reagent of CellTiter-Glo luminescent Cell Viability Assay (Promega Corp.) kit was added to each well, and the plate was stirred for 10 minutes using a plate shaker. 100 µL/well of the reaction solution was transferred to 96-well White Flat Bottom plate, and luminescence intensity (relative light unit (RLU)) was measured using a plate reader (Ensight: PerkinElmer, Inc.) and used as an index for the number of cells.

[4] = test system: CD25-negative human tumor cell line Daudi; test: Cell proliferation suppression assay, CD25-negative Daudi; type: cell-based; details: CD25-negative cells; 6 days; CellTiter-Glo
Procedure: (§1) A CD25-positive human tumor cell line Karpas-299 was subcultured in RPMI1640 (Thermo Fisher Scientific Inc.) medium containing 2 mM glutamine (Life Technologies Corp.) and 20% FBS under conditions of 37°C and 5% CO2. A CD25-negative human tumor cell line Daudi was subcultured in RPMI1640 medium containing 10% FBS under conditions of 37°C and 5% CO2.
(§2) The cultured Karpas-299 was inoculated at 1 × 10^3 cells/50 µL/well in RPMI1640 medium containing 2 mM glutamine and 20% FBS to 96 well clear U bottom microplate (Corning Inc.). cMAb1_hIgG1LALA was added at 0.015 µg/mL to 15 µg/mL, and control hIgG1LALA-ADC and cMAb1_hIgG1LALA-ADC were added at 0.0015 µg/mL to 1.5 µg/mL. The cells were cultured for 6 days under conditions of 37°C and 5% CO2. The incubated plate was left standing at room temperature for 30 minutes. Reagent solution of CellTiter-Glo(TM) Luminescent Cell Viability Assay (Promega Corp.) was added at 100µL/well, and the plate was mixed at room temperature for 10 minutes under light shielding using a plate mixer (Taitec Corp.). 100 µL of the solution of each well was added to each well of 96 well white flat bottom microplate (Corning Inc.), and luminescence intensity (relative light unit (RLU)) was measured using a plate reader (Ensight: PerkinElmer, Inc.) and used as an index for the number of cells.
Cell proliferation suppressive activity against the CD25 expression-negative human tumor cell line DauDi was measured in the same manner as above using RPMI1640 medium (Thermo Fisher Scientific Inc.) containing 10% FBS (GE Healthcare Bio-Sciences Corp.). Daudi was inoculated at 1 × 10^4 cells/50 µL/well. […]
(§3) The test was carried out in accordance with 9)-1-2. […] 100 µL/well of the reaction solution was transferred to 96-well White Flat Bottom plate, and luminescence intensity (relative light unit (RLU)) was measured using a plate reader (Ensight: PerkinElmer, Inc.) and used as an index for the number of cells.

[5] = test system: CD25-positive human tumor cell line Karpas-299; test: Cell proliferation suppression assay, CD25-positive Karpas-299; type: cell-based; details: antibody 0.015 to 15 µg/mL, ADC 0.0015 to 1.5 µg/mL; 6 days; CellTiter-Glo
Procedure: as §1
as §2, with “Reagent solution of CellTiter-Glo(TM) Luminescent Cell Viability Assay (Promega Corp.) was added at 100µL/well, and the plate was mixed at room temperature for 10 minutes under light shielding using a plate mixer (Taitec Corp.).” left out, “cells. […]” for “cells.”
as §3

[6] = 3 mg/kg i.v. 7 days after transplantation, tumor 21 days after administration, vs human IgG1LALA-ADC, n = 4 or 5
[7] = 0.1, 0.3 or 1 mg/kg i.v. 7 days after transplantation, tumor 28 days after administration, vs 1 mg/kg control hIgG1LALA-ADC, n = 5

Row | Molecule | cell proliferation suppressive activity against CTLL-2 [1] | ratio of the number of human CD8-positive T cells to the number of human CD45 cells [2, 6] | ratio of the number of human GZMB-positive and CD8-positive T cells to the number of human CD45 cells [2, 6] | ratio of the number of human Treg cells to the number of human CD45 cells [2, 6] | cell proliferation suppressive activity against EoL-1 [3] | cell proliferation suppressive activity against Daudi [4] | ratio of the number of human CD8-positive T cells to the number of human CD45 cells (% of hCD45) [2, 7] | ratio of the number of human GZMB-positive and CD8-positive T cells to the number of human CD45 cells (% of hCD45) [2, 7] | ratio of the number of human Treg cells to the number of human CD45 cells (% of hCD45) [2, 7] | cell proliferation suppressive activity against Karpas-299 [5]
1 | B1 | exhibited cell proliferation suppressive activity | – | – | – | – | – | – | – | – | –
2 | B2 | – | increase | increase | decreased | exhibited cell proliferation suppressive activity at a lower concentration | exhibited no cell proliferation suppressive activity | – | – | – | –
3 | B3 | – | – | – | – | – | only against the CD25-positive human tumor cell line Karpas-299 | increase | increase | decreased in a dose-dependent manner | exhibited cell proliferation suppressive activity at a lower concentration than that of human IgG1LALA-ADC
